Measured values as given in PubChem BioAssay (NCI).
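Results reflect a 48-hour exposure of cells in 96-well plates to compound at five concentrations. GI50 = concentration required for 50% inhibition of growth. TGI is the concentration that stops growth completely.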

System: NCI-H322M lung
Test: inhibition of tumour cell growth, NCI panel, 48 h

Row | Compound | TGI | GI50
1 | O=c1c2ccccc2nc2n1NC(c1c(Cl)cccc1Cl)N2c1cccc(Cl)c1 (centres undefined) | 52.1 µM | 
2 | COC(=O)c1c[nH]cc1CCc1c[nH]cc1C(=O)OC | > 100 µM | 
3 | COC(=O)C1(C)C=C(Nc2ccccc2)C(=O)N1c1ccccc1 (centres undefined) | > 100 µM | 
4 | CC1=C2C(O)C(C(C)C(=O)NCC(C)C)CCC2(C)C=CC1=O (centres undefined) | > 100 µM | 
5 | C=CC1(C)CCC(C(C)C(=O)C(C=C(C)C)OC(C)=O)C12C(=O)Oc1ccccc1C2=O (centres undefined) | > 100 µM | 
6 | O=C(c1ccccc1)c1ccc(C(c2c(O)c3ccccc3oc2=O)c2c(O)c3ccccc3oc2=O)cc1 | 51.4 µM | 
7 | CC[C@@H]1C[C@@H]2CN3CCc4c([nH]c5ccc(OC)cc45)C(COC(=O)c4ccc(OC)c(OC)c4)(C2)C13 | > 100 µM | 
8 | Cn1c(=O)oc2cc(C(=O)CSC(=S)N3CCCCCC3)ccc21 | > 100 µM | 
9 | CCCCCCCCC[C@@H]1C[C@@H]2CCC3C(C(=O)OC)=C(C)NC(=N1)N32 (some centres undefined) | 30.4 µM | 
10 | O=c1[nH]c2ccc(C(F)(F)F)cc2nc1-c1ccccc1 | > 100 µM | 
11 | C[C@]12CC[C@@H]3c4ccc(O)cc4CC[C@H]3[C@@H]1C/C(=C\c1ccc([N+](=O)[O-])cc1)C2=O | > 100 µM | 
12 | CSC(SC)=C1CC(=O)Nc2ccccc2C1=O | > 100 µM | 
13 | CN(C)CCCNc1c(O)c2c(c(O)c1Cl)C(=O)C=CC2=O | 3.19 µM | 
14 | Clc1ccc(N=C/C=C/Nc2ccc(Cl)cn2)nc1 | 30.4 µM | 
15 | COc1cc(NS(C)(=O)=O)ccc1NCc1cnc2ccc3[nH]c(C)ccc3c12 | > 100 µM | 
16 | CCN1CC2=C(N=c3s/c(=C\c4ccc(Cl)cc4)c(=O)n3C2c2ccc(Cl)cc2)/C(=C/c2ccc(Cl)cc2)C1 (centres undefined) | > 100 µM | 
17 | Cc1[nH]c2ncn3nc(C(Cl)(Cl)Cl)nc3c2c1Cc1ccccc1 | > 100 µM | 
18 | COc1cc2oc(=O)cc(C)c2cc1[N+](=O)[O-] | > 100 µM | 

Row | Compound | TGI | GI50
19 | CCOC(=O)c1cc2cc(N(C(C)=O)C(C)=O)ccc2s1 | 95.2 µM | 
20 | CN/N=C(/Cc1occc(=O)c1O)C(=O)Nc1ccc(C)c(C)c1 | > 100 µM | 
21 | Oc1ccc2ccccc2c1C=NCCCN=Cc1c(O)ccc2ccccc12 | 81.6 µM | 22.2 µM
22 | Cn1ccnc1C(=O)/C=C/c1ccc(CC(=O)Nc2ccc(Cl)cc2)cc1 | > 25 µM | 3.99 µM
23 | N#CC1=C(N)Oc2cc3c(cc2C1c1cccs1)OCO3 (centres undefined) | > 100 µM | 6.32 µM
24 | O=C1OC(c2ccco2)=N/C1=C\c1ccc(Cl)c(Cl)c1 | > 100 µM | 
25 | c1ccc(COc2ccc(CC3SCCCS3)cc2)cc1 | > 100 µM | 
26 | CCCCCC(CN1CCOCC1)C(=O)/C=C/c1ccccc1 (centres undefined) | 14.7 µM | 
27 | NCc1ccc(-c2ccc(-c3ccc(-c4ccc(CN)s4)s3)s2)s1 | > 100 µM | 
28 | CCN(CC)CCn1c(C(C)(C)C)nc2ccccc21 | > 100 µM | 
29 | CCOC(=O)c1c(C)n(Cc2ccccc2)c(=O)c2ccccc2c(=O)c2c(=O)ccc(=O)c1=2 | > 100 µM | 
30 | O=C1c2ccccc2-c2c1c1ccccc1c(=O)n2Cc1ccco1 | > 100 µM | 
31 | O=C1C2C(C(=O)N1O)N(Cc1ccccc1)C(=O)N2Cc1ccccc1 (centres undefined) | > 100 µM | 
32 | COc1ccc2[nH]c(CCNC(=O)c3cc([N+](=O)[O-])cc([N+](=O)[O-])c3)cc2c1 | > 100 µM | 
33 | CC1=C(C)C(=O)c2c(c(C(=O)c3ccccc3)c3nc4ccccc4n3c2C)C1=O | > 100 µM | > 100 µM
34 | O=C(O)CC(C(=O)O)c1ccccc1[N+](=O)[O-] (centres undefined) | > 100 µM | 
35 | CSc1ccc2c(cc1=O)[C@@H](NC(C)=O)CCc1cc(O)c(O)c(O)c1-2 | > 100 µM | 
